The campaign covered roughly 360,000 compounds. About 2,600 (0.72%) were called active. The inconclusive results got no clear call from the source; some entries with a clear call stand among them for comparison. The call rests on the fitted dose curve; in most records, active means well fitted inhibition curve with a large enough effect; inconclusive means small, poorly fitted or top-dose-only effect; inactive means no such curve, though single readings can be large or run the other way. Where the call is inconclusive, the potency comes from a doubtful curve fit.
Assay: Primary qHTS for Inhibitors of ATXN expression; further: nearly all actives have a fitted effect of over 55% in size
Conditions: HEK-293 ATXN2-luciferase reporter, luminescence, 24 h; activity change, negative = inhibition: at 57 µM (top of the series)
Description: University of Utah School of Medicine, Salt Lake City, Utah
Spinocerebellar ataxia type 2 (SCA2) is a multisystem neurodegenerative disease caused by a dominantly acting mutation leading to expansion of a polyQ domain in the ataxin-2 protein (ATXN2). SCA2 patients develop progressive ataxia and later lose function in other neuronal systems. Prominent parkinsonian signs develop in some patients. Like many neurodegenerative disorders, no symptomatic or disease-modifying treatments are known.
The primary objective of the proposed research is to identify compounds inhibiting ATXN2 expression and to test them for efficacy in SCA2 mouse models. We have developed a cell-based assay paired with an in vivo mouse model using identical luciferase expression constructs. This approach takes advantage of an ATXN2-luciferase transgene, with the luciferase gene flanked by the upstream and downstream portions of the ATXN2 gene. Here we describe a 5-7 dose quantitative high thoroughput screen (qHTS) for compounds lowering ATXN2 expression. We screened the NIH Molecular Libraries Small Molecule Repository (MLSMR) and NCGC's mechanistically annotated (MIPE) and drug repurposing (NPC) collections of compounds for lowering expression of an ATXN2-luciferase reporter in HEK-293 cells. The assay is a multiplexed cell viability assay to ensure target reduction in the absence of cytotoxicity. Secondary qHTS assays included a CMV-luciferase reporter expressed in HEK-293 cells as well as a biochemical assay using recombinant luciferase to detect inhibitors of the reporter enzyme. Compounds that inhibit ATXN2 expression but is not cytotoxic were selected for confirmatory and secondary screens.
PROTOCOL TABLE (as described by Inglese J, Shamu CE and Guy RK. 2007)
SEQUENCE No. (e.g., 1, 2, 3, etc.); […] (e.g., Cells, Incubation, Reagent, etc.); VALUE; DESCRIPTION.
1; Cells; 4 uL; white, solid bottom, 1536-well Greiner assay plate.
2; Incubation; 2 hr; 37 degree C in 5% humidified CO2.
3; Compounds; 23 nL; Kalypsis pintool (Wako USA) equipped with a 1536-well pin head.
4; Incubation; 24 hr; 37 degree C in 5% humidified CO2.
5; Reagent; 1 uL; Gly-Phe-7-Amino-4-trifluoromethylcoumarin.
6; Incubation; 30 min; 37 degree C in 5% humidified CO2.
7; Detection; Fluorescence; ViewLux plate reader (PerkinElmer).
8; Reagent; 3 uL; SteadyGlo luciferase solution (Promega).
9; Incubation; 5 min; room temperature.
10; Detection; Luminescence; ViewLux plate reader (PerkinElmer).
NOTES (numbers refer to Sequence numbers above)
1. S2 cells expressing ATXN2-luciferase reporter were suspended in phenol-red free DMEM and dispensed in assay plates using a Multidrop Combi dispenser (Thermo Fisher Scientific).
2. Assay plates were incubated. Evaporation was prevented by covering assay plates with metal lids containing holes to allow gas diffusion.
3. Compounds were added in a dose response manner with the final concentrations of 57, 11.4, 2.28, 0.46, 0.091, 0.018, 0.0037 uM. Vehicle-only plates, with DMSO being pin-transferred to columns 5-48, were inserted uniformly at the beginning and the end of each library to monitor and record any shifts in assay performance.
5. 125 uM Gly-Phe-7-Amino-4-trifluoromethylcoumarin (MP Biomedicals) working concentration was used at a final concentration of 25 uM.
7. To assess cell viability; the assay plates were read using the ViewLux high-throughput CCD imager (PerkinElmer), wherein single end-point fluorescence measurement was acquired (excitation 405/10; emission 540/25 nm).
8. Detection reagent SteadyGlo Luciferase (Promega) was added to the assay plate.
10. Luminescence is then measured on the ViewLux imager equipped with a clear emission filter using a 2 sec exposure. All screening operations were performed on a fully integrated robotic system (Kalypsys) containing one RX-130 and two RX-90 anthropomorphic robotic arms (Staubli).
[…]
On the % scale 0 is the no-effect control and ±100 the full control effect; potency means the concentration at half of the fitted maximal effect; tags describe the fitted curve by direction and shape.

Potency, active:
N#CC(=C(O)COC(=O)CCC1CCCCC1)c1nc2ccccc2[nH]1 20 µM, COc1cccc(/C=N/Nc2ncccc2[N+](=O)[O-])c1OC 3.16 µM, COC(=O)c1c(N)sc(C(=O)NCCc2ccccc2)c1C 3.55 µM, COc1cc2c3nnc(-c4ccc(F)cc4)c-3cn(Cc3ccccc3F)c2cc1OC 20 µM, COc1cc(CNCCc2ccc(S(N)(=O)=O)cc2)ccc1OCc1ccc(Cl)cc1 17.8 µM, CCc1ccc2c(c1)NC(=O)C2(C)Cc1ccc(OC(F)(F)F)cc1 (configuration not stated) 25.1 µM

Potency, inconclusive:
CCCCCCN1C=C/C(=C\C=C(C#N)C#N)c2ccccc21 14.1 µM [inhibitor, partial curve, poor fit], O=C(NCC1OCCc2ccccc21)c1ccc(NC(=O)c2ccc(Cl)cc2)cc1 (configuration not stated) 22.4 µM [inhibitor, single point], Cc1noc(-c2ccc(Cl)cc2)c1C(=O)O/N=C(\N)c1ccc(C(C)(C)C)cc1 37.7 µM [inhibitor, single point], COCCOC(=O)c1c(C)nc(SCC(=O)Nc2cccc3ccccc23)c(C#N)c1-c1ccco1 25.1 µM [inhibitor, partial curve, poor fit], CC1(Cc2ccc(C(F)(F)F)o2)C(=O)Nc2cc(-c3ccc(F)cc3F)ccc21 (configuration not stated) 31.6 µM [inhibitor, single point], Cc1ccc2[nH]c(=O)c(CN(Cc3cccs3)Cc3nnnn3Cc3ccccc3)cc2c1 39.8 µM [inhibitor, single point], O=C(O)CNS(=O)(=O)c1c(Cl)cccc1Cl 3.55 µM [inhibitor, single point], CC(O)(c1ccc(F)c(F)c1)c1nc(-c2ccc(Cl)cc2)cs1 (configuration not stated) 39.8 µM [inhibitor, partial curve, poor fit], Cc1ccc2cc(CN(Cc3ccc(F)cc3)Cc3nnnn3C3CCCC3)c(=O)[nH]c2c1 39.8 µM [inhibitor, single point], CCCc1c(-c2ccccc2F)ncn1CCc1ccccc1OC 31.6 µM [inhibitor, partial curve, poor fit], CCCCOc1ccc(CNC(=O)c2cc3n(n2)CCCN(Cc2ccc(C)cc2)C3=O)cc1 12.6 µM [inhibitor, partial curve], COc1ccc(OCCn2c(C)nc3cc(C)c(C)cc32)cc1 39.8 µM [inhibitor, partial curve, poor fit], CCOc1cccc(C(=O)Nc2ccc3oc(-c4cccnc4)nc3c2)c1 28.2 µM [inhibitor, single point], CN(CC(=O)Nc1ccc(Cl)cc1)C(=O)CNC(=O)Cc1cccc2ccccc12 14.1 µM [inhibitor, partial curve, poor fit], COC(=O)c1ccccc1NC(=S)NC(C)=O 8.44 µM [inhibitor, single point], Cc1noc(C)c1S(=O)(=O)Nc1ccc(C(=O)Nc2ccc(Br)cc2)cc1 20 µM [inhibitor, partial curve], CN(C)CCNC(=O)Nc1ccc([N+](=O)[O-])cc1 0.267 µM [inhibitor, full curve], Cc1ccccc1CN1C(=O)[C@H]2Cc3c([nH]c4ccccc34)C(C)(C)N2C1=O 25.1 µM [inhibitor, partial curve, poor fit], O=C(CCc1ccccc1)NC1(Cc2ccccc2)CCN(CCCc2ccccc2)C1=O (configuration not stated) 25.1 µM [inhibitor, single point], CC1CC(C)CN(S(=O)(=O)c2ccc(C(=O)Nc3sccc3C(N)=O)cc2)C1 (configuration not stated) 31.6 µM [inhibitor, partial curve, poor fit], CCOC(=O)c1ccc(NC(=O)CN2c3ccccc3S(=O)(=O)c3ccccc32)cc1 39.8 µM [inhibitor, single point], Cc1[nH]n(-c2ccccc2)c(=O)c1N=Nc1ccccc1O 0.947 µM [inhibitor, partial curve, poor fit], O=C(Cn1cc[n+](Cc2ccccc2)c1)c1ccc([N+](=O)[O-])cc1 15.8 µM [inhibitor, partial curve], Cc1ccccc1CNC(=O)CN(c1ccccc1Cl)S(C)(=O)=O 0.377 µM [inhibitor, partial curve, poor fit], COc1ccc(CCNC(=O)CCc2c(C)nc3cc(-c4ccccc4OC)nn3c2C)c(OC)c1 39.8 µM [inhibitor, single point], CNc1nnc(-c2ccc(N(C)C)cc2)s1 12.6 µM [inhibitor, single point], Oc1ccc(C[C@H]2CNC(=S)N2CC2CCCN2C[C@H](Cc2ccc(O)cc2)N2C[C@H](Cc3ccccc3)N(CCc3ccccc3)C2=S)cc1 (some centres not stated) 25.1 µM [inhibitor, partial curve, poor fit], CCCOc1ccc(C(=O)CCN2CCN(C(=O)OCC)CC2)cc1 37.7 µM [inhibitor, single point], Clc1cccc(N/N=C/c2ccc(N3CCOCC3)s2)c1 39.8 µM [inhibitor, single point], O=C(Nc1ccc(F)c(Cl)c1)C1Cc2c(-c3ccco3)ccnc2O1 (configuration not stated) 39.8 µM [inhibitor, single point], Cc1cc(C(=O)COC(=O)CNC(=O)c2ccccc2)c(C)n1CC1CCCO1 (configuration not stated) 11.9 µM [inhibitor, partial curve, poor fit], Cc1ccc(S(=O)(=O)N(C)c2ccc(C(=O)N3CCN(Cc4ccc5c(c4)OCO5)CC3)cc2)cc1 22.4 µM [inhibitor, single point], Cc1[nH]n(-c2ccccc2)c(=O)c1N=Nc1cccc(C(=O)O)c1 17.8 µM [inhibitor, single point], O=C(C=Cc1cccnc1)c1ccccc1 39.8 µM [inhibitor, single point], O=C(CCN1CCOCC1)c1ccccc1 39.8 µM [inhibitor, single point], CC(C)c1nc(SCC(=O)Nc2nc3c(s2)CCCC3)c2ccccc2n1 39.8 µM [inhibitor, single point], CN(C)CCCN(C(=O)c1ccc(S(=O)(=O)N2CCc3ccccc32)cc1)c1nc2c(Cl)cccc2s1 35.5 µM [inhibitor, single point], C#CCn1c(=NC(=O)CSC(C)=O)sc2cc(F)ccc21 8.44 µM [inhibitor, full curve, poor fit], O=C(COCc1cc(-c2ccc3c(c2)OCO3)on1)N1CCN(c2cccc(C(F)(F)F)c2)CC1 2.82 µM [inhibitor, full curve, poor fit], NCC(O)CN1CCN(Cc2ccccc2)CC1 (configuration not stated) 7.94 µM [inhibitor, partial curve, poor fit], C[C@@H](C(=O)NCc1ccco1)N1C(=O)N2CCc3c([nH]c4ccccc34)[C@@]2(C)C1=O 2.24 µM [inhibitor, partial curve, poor fit], CCC(C(=O)Nc1cc(OC)ccc1OC)n1nc(-c2ccccc2)c2c(c1=O)CCCC2 (configuration not stated) 25.1 µM [inhibitor, single point], Cc1cccc(Cn2nnc3c(=O)[nH]c(C4CCCN(C(=O)c5ccc(C(C)(C)C)cc5)C4)nc32)c1 (configuration not stated) 35.5 µM [inhibitor, partial curve, poor fit]

Activity change, negative = inhibition, inactive:
COCc1nnc(NC(=O)C2CC(=O)N(c3ccc(C)c(Cl)c3)C2)s1 (configuration not stated) -6.59%, CN1CCN(c2ncccc2S(=O)(=O)N2CCCCC2)CC1 2.94%, COc1ccccc1CNC(=O)c1cc(-c2ccc(F)cc2OC)n[nH]1 -16.7%, COCCNC(=O)c1cc2sc3ccccc3c2s1 33.9%, O=C(Cc1ccccc1F)Nc1nc(-c2ccc(F)c(F)c2)cs1 -30.3%, COc1ccc(C#Cc2cnc3c(c2)C(=O)N([C@H](C)CO)C[C@@H](C)[C@H](CN(C)C(=O)CN(C)C)O3)cc1 -7.05%, CCN(C(=O)CSc1nc2ccccc2n1CC(=O)NCc1ccc(OC)cc1)c1ccccc1 4.69%, Cc1ccc(CNC(=O)CNC(=S)N(Cc2ccccc2)Cc2cccnc2)cc1 -9.06%, Cc1nc(-c2cccc(NC(=O)c3ccc(-n4cccn4)cc3)c2)cs1 -6.67%, Cc1c(Cl)cccc1NC(=S)N1CCCN(Cc2ccc(F)cc2)C1 0%, CCOC(=O)N1CCN(c2ncc3c(n2)CC(c2ccccc2O)CC3=O)CC1 (configuration not stated) -19.8%, CCSc1nnc(Cn2c(=O)sc3ccccc32)n1C 4.68%, CCOc1cc(C(=O)N/N=C/C(Br)=C/c2ccccc2)cc(OCC)c1OCC -22.9%, CCN1CCN(C(=O)C2CCN(S(=O)(=O)c3ccc(Br)cc3)CC2)CC1 -4.36%, O=C(NCc1nnc(SCC(=O)N2CCCc3ccccc32)n1-c1ccccc1)c1cccc2ccccc12 -20.3%, CN1CCN(S(=O)(=O)c2ccc(Nc3ccc(F)cc3)c([N+](=O)[O-])c2)CC1 -20.9%, Cc1ccc(-n2ccnc(NCc3cccs3)c2=O)cc1C 0.435%, CCC1CCc2sc(C(=O)NCC(c3ccccc3OC)N3CCCC3)cc2C1 (configuration not stated) -38.5%

From PubChem BioAssay AID1745845 (National Center for Advancing Translational Sciences (NCATS), 2022)
